Assay results reported in PMC4336329 (PLoS ONE, 2015).
Among all 310,000 compounds or so, about 2,200 (0.71%) showed an effect of 50% or more. Effects have a minus sign here. Some of the results follow.

Each compound was assayed against human ether-à-go-go-related gene (hERG) potassium channel (human, UniProt Q12809) (assay: primary screen, population patch clamp on CHO cells stably expressing hERG).
Chain of human ether-à-go-go-related gene (hERG) potassium channel (Q12809 whole entry, looked up): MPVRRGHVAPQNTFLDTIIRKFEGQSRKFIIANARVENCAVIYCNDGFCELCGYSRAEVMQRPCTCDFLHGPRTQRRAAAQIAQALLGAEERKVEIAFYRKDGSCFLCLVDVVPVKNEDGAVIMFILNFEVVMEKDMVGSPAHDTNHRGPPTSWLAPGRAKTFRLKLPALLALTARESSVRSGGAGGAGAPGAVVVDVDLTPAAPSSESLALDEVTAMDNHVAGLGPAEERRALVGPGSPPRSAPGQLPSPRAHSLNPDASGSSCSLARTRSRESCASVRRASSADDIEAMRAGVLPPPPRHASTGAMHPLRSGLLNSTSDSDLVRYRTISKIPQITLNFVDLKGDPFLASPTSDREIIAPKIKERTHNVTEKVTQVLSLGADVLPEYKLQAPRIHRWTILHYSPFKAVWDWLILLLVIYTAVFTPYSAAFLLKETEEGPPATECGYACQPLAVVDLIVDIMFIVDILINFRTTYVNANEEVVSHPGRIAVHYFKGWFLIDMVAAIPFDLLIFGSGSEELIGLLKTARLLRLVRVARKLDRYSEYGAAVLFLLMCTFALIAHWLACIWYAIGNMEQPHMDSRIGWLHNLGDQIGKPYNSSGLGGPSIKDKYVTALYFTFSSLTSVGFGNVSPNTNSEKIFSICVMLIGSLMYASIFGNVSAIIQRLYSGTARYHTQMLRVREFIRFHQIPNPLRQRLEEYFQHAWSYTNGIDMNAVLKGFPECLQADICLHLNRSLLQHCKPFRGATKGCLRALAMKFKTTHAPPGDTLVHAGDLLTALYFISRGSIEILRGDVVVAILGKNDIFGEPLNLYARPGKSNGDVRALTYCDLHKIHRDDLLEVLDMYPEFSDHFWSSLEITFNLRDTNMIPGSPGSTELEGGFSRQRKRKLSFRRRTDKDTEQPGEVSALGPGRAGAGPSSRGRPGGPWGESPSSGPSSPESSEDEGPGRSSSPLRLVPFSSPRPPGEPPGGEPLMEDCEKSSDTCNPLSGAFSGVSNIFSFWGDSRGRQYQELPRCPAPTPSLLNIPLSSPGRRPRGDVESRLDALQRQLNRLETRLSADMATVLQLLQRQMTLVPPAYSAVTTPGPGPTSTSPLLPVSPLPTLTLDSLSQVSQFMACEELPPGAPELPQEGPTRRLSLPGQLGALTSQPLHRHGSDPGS
In the case of `Cc1cc([N+](=O)[O-])ccc1NC(=O)CSc1nccc(=O)[nH]1`, the “hERG current change (%, negative = inhibition) at 1uM” value is reported as 9.48%.
For `Cc1ccc(S(=O)(=O)Nc2ccc3c(c2)nc(CCN2CCN(c4ccccn4)CC2)n3C)cc1`, the “hERG current change (%, negative = inhibition) at 1uM” value was -80.7%.
For `CSc1ccc(CN(C)CC(=O)NCc2ccc(F)cc2)cc1`, the “hERG current change (%, negative = inhibition) at 1uM” value was -19.3%.
In the case of `COc1cc(C(=O)NC2=C(C#N)CCC2)cc(OC)c1OC`, the “hERG current change (%, negative = inhibition) at 1uM” value is reported as 13.8%.
For `CCOc1ccc(N2C(=O)CC(N3CCN(c4ccccc4F)CC3)C2=O)cc1` (stereo not drawn), the “hERG current change (%, negative = inhibition) at 1uM” value was 7.52%.
In the case of `Cc1ccc(NC(=O)CCc2nnc3ccc(NCc4ccco4)nn23)cc1F`, the “hERG current change (%, negative = inhibition) at 1uM” value is reported as -17.2%.
For `CCS(=O)(=O)c1nc(S(=O)(=O)c2ccc(C)cc2)c(N2CCC(O)CC2)s1`, the “hERG current change (%, negative = inhibition) at 1uM” value was 4.52%.
In the case of `Oc1ccc(Cl)cc1CNn1cnnc1`, the “hERG current change (%, negative = inhibition) at 1uM” value is reported as 11.9%.
`COc1cc(C(=S)N2CCOCC2)cc(OC)c1OC(=O)c1cccc(C)c1` was tested, and the “hERG current change (%, negative = inhibition) at 1uM” value was 7.14%.
With `CC(C)CCn1c(=O)c2ccccc2n2c(CCl)nnc12` the “hERG current change (%, negative = inhibition) at 1uM” value was -4.95%.
In the case of `COc1ccc(OC)c(C2NC(=O)c3sc(=S)n(-c4ccccc4)c3N2)c1` (stereo not drawn), the “hERG current change (%, negative = inhibition) at 1uM” value is reported as 11.7%.
For `CC(C)(C)C(=O)NC1(C(F)(F)F)N=C2SCCN2C1=O` (stereo not drawn), the “hERG current change (%, negative = inhibition) at 1uM” value was -3.28%.
In the case of `COc1ccc(C(=O)Nc2nnc(SCC(=O)NCc3ccco3)s2)cc1OC`, the “hERG current change (%, negative = inhibition) at 1uM” value is reported as 8.41%.
In the case of `CCOC(=O)c1cc(-c2ccccc2)sc1NC(=O)C(C)OC(=O)c1cccc(S(=O)(=O)N(C)C)c1` (stereo not drawn), the “hERG current change (%, negative = inhibition) at 1uM” value is reported as 15.6%.
For `CNC(=O)N(C)c1ccc(C(O)(C(=O)OC)C(F)(F)F)cc1` (stereo not drawn), the “hERG current change (%, negative = inhibition) at 1uM” value was 12.5%.
In the case of `O=[N+]([O-])c1ccc(C2=NN(CCO)C(=Nc3ccc(OC(F)(F)F)cc3)SC2)cc1`, the “hERG current change (%, negative = inhibition) at 1uM” value is reported as 18.2%.
With `CCN(CC)S(=O)(=O)c1cccc(C(=O)Nc2nc3cc4c(cc3s2)OCCO4)c1` the “hERG current change (%, negative = inhibition) at 1uM” value was 10.8%.
In the case of `NC(=O)COC(=O)c1cc(=O)[nH]c2ccc(S(=O)(=O)Nc3ccc(F)cc3)cc12`, the “hERG current change (%, negative = inhibition) at 1uM” value is reported as 8.84%.
With `Cl.O=C(Oc1cccnc1)c1ccc(Cl)cc1` the “hERG current change (%, negative = inhibition) at 1uM” value was -19.7%.
`COc1cccc(-c2ncc3ccccc3c2COC(=O)CCCC(=O)O)c1` was tested, and the “hERG current change (%, negative = inhibition) at 1uM” value was 2.76%.
With `NC(=S)Nc1ccccc1Br` the “hERG current change (%, negative = inhibition) at 1uM” value was -9.14%.
With `COc1ccc(N2CCN(c3ccc(N4C(=O)CC(C)C4=O)cc3[N+](=O)[O-])CC2)cc1` (stereo not drawn) the “hERG current change (%, negative = inhibition) at 1uM” value was 15%.
For `Cc1onc(-c2ccccc2Cl)c1C(O)c1ccc(F)cc1` (stereo not drawn), the “hERG current change (%, negative = inhibition) at 1uM” value was 2.22%.
With `COc1ccc(S(=O)(=O)N2CCOCC2)c(C)c1C` the “hERG current change (%, negative = inhibition) at 1uM” value was 11.5%.
With `COc1ccccc1C(=O)Nc1ccc(CN2CCCCC2)cc1` the “hERG current change (%, negative = inhibition) at 1uM” value was 9.16%.
For `CC(OC(=O)Cn1[nH]c(=O)c2ccccc2c1=O)C(=O)Nc1ccc(Cl)cn1` (stereo not drawn), the “hERG current change (%, negative = inhibition) at 1uM” value was 3.15%.
For `CCCCn1ccnc1C(=O)c1ccc(S(=O)(=O)N(CCOC)CCOC)cc1`, the “hERG current change (%, negative = inhibition) at 1uM” value was 10.7%.
In the case of `CCOc1cc(NC(=O)C2CCCCC2)c(OCC)cc1NC(=O)c1ccco1`, the “hERG current change (%, negative = inhibition) at 1uM” value is reported as 9.59%.
For `CC1CCCN(C(c2cccs2)c2nnnn2Cc2ccccc2)C1.Cl` (stereo not drawn), the “hERG current change (%, negative = inhibition) at 1uM” value was -0.954%.
For `COc1ccccc1C1CC(=O)Nc2cc(C)c(C)cc21` (stereo not drawn), the “hERG current change (%, negative = inhibition) at 1uM” value was 12.4%.
`CCOC(=O)c1coc(CNC(=O)c2c(C)oc3c2CCCC3)c1` was tested, and the “hERG current change (%, negative = inhibition) at 1uM” value was 0.0394%.
For `Cc1ccc(CN2CCN(CC(=O)N/N=C/c3c[nH]c4ccccc34)CC2)cc1`, the “hERG current change (%, negative = inhibition) at 1uM” value was -5.15%.
In the case of `CCOC(=O)C1CCN(C2CCN(C(=O)c3oc4c(F)cccc4c3C)CC2)CC1`, the “hERG current change (%, negative = inhibition) at 1uM” value is reported as -67%.
`COc1ccc(CNC(=O)C2CCN(S(=O)(=O)c3ccc(Br)s3)CC2)cc1` was tested, and the “hERG current change (%, negative = inhibition) at 1uM” value was 3.86%.
`COc1ccc(NC(=O)C(NC(=O)CC2NC(=O)NC2=O)c2ccccc2)cc1` (stereo not drawn) was tested, and the “hERG current change (%, negative = inhibition) at 1uM” value was 0.021%.
With `O=C1C(=O)N(Cc2cccc([N+](=O)[O-])c2)c2ccccc21` the “hERG current change (%, negative = inhibition) at 1uM” value was 0.382%.
`NNC(=O)c1ccc(COc2cccc3ccccc23)o1` was tested, and the “hERG current change (%, negative = inhibition) at 1uM” value was 12.6%.
In the case of `COC(=O)c1[nH]c2ccccc2c1NC(=O)CN1CCN(c2cccc(OC)c2)C(C)C1` (stereo not drawn), the “hERG current change (%, negative = inhibition) at 1uM” value is reported as 5.4%.
In the case of `O=C(CBr)Nc1c2c(nn1-c1ccccc1)CSC2`, the “hERG current change (%, negative = inhibition) at 1uM” value is reported as 14.2%.
In the case of `CCOc1cc(NC(=S)NCCOC)c(OCC)cc1NC(=O)c1ccco1`, the “hERG current change (%, negative = inhibition) at 1uM” value is reported as 10.8%.
For `CCCn1c(N)c(C(=O)CSc2nnc(Cc3cccs3)n2C2CC2)c(=O)n(C)c1=O`, the “hERG current change (%, negative = inhibition) at 1uM” value was 6.27%.
For `Cc1ccc(C(CC(=O)N2CCCCC2)c2ccccc2)c(O)c1C` (stereo not drawn), the “hERG current change (%, negative = inhibition) at 1uM” value was -1.66%.
For `Cc1ccccc1C1C2=C(Nc3[nH]n(-c4ccccc4)c(=O)c31)c1ccccc1C2=O` (stereo not drawn), the “hERG current change (%, negative = inhibition) at 1uM” value was 1.91%.
For `CCc1nnc(N/N=C/c2c(F)cccc2Cl)n1N`, the “hERG current change (%, negative = inhibition) at 1uM” value was 7.27%.
`CCc1ccc(/C=C2\Oc3c(ccc(O)c3CN3CCN(C)CC3)C2=O)cc1` was tested, and the “hERG current change (%, negative = inhibition) at 1uM” value was 3.67%.
`O=S(=O)(c1cccs1)N1CCN(c2ccccn2)CC1` was tested, and the “hERG current change (%, negative = inhibition) at 1uM” value was 13.6%.
For `O=C(COC(=O)c1cccnc1)c1ccc(Cl)c(Cl)c1`, the “hERG current change (%, negative = inhibition) at 1uM” value was 12.8%.
`O=C1NC(=S)NC(=O)C1=Cc1ccc(Br)s1` was tested, and the “hERG current change (%, negative = inhibition) at 1uM” value was 17.6%.
`COc1ccc(OC)c(NC(=O)C2CCCC2)c1` was tested, and the “hERG current change (%, negative = inhibition) at 1uM” value was 10.1%.
In the case of `CC1CC(C)CN(S(=O)(=O)c2cc3c(cc2Cl)NC(=O)CO3)C1` (stereo not drawn), the “hERG current change (%, negative = inhibition) at 1uM” value is reported as -1.39%.
With `COc1ccc2nc(NC(=O)c3cccc(OCc4c(C)noc4C)c3)sc2c1` the “hERG current change (%, negative = inhibition) at 1uM” value was 1.83%.
`O=C(CCN1CCN(c2ccccc2)CC1)NNC(=S)Nc1ccccc1` was tested, and the “hERG current change (%, negative = inhibition) at 1uM” value was -19%.
`COc1ccc(C(C(=O)NC(C)(C)C)N(Cc2cccnc2)C(=O)CCC(=O)Nc2cc(C)on2)cc1` (stereo not drawn) was tested, and the “hERG current change (%, negative = inhibition) at 1uM” value was 6.74%.
`CCC(=O)N/C(N)=N/c1nc2ccccc2o1` was tested, and the “hERG current change (%, negative = inhibition) at 1uM” value was 11.3%.
`CCCn1cc(CN2CCCC(C(=O)c3ccc4c(c3)OCO4)C2)c(C)n1` (stereo not drawn) was tested, and the “hERG current change (%, negative = inhibition) at 1uM” value was -10.2%.
For `CC(=O)N1CCc2ccc(NC(=O)c3c(-c4c(Cl)cccc4Cl)noc3C)cc21`, the “hERG current change (%, negative = inhibition) at 1uM” value was 13.3%.
`O=C(CCc1ccccc1)Nc1c(F)cccc1F` was tested, and the “hERG current change (%, negative = inhibition) at 1uM” value was 0.491%.
`Cc1ccc(OCCCC(=O)Nc2ccc(S(=O)(=O)N3CCOCC3)cc2)cc1` was tested, and the “hERG current change (%, negative = inhibition) at 1uM” value was 5.94%.
In the case of `O=S(=O)(Nc1cccc(CCc2ccccn2)c1)c1ccc(Cl)cc1`, the “hERG current change (%, negative = inhibition) at 1uM” value is reported as 12.6%.
In the case of `CSc1nnc(SCC2=NNC(=O)SC2)s1`, the “hERG current change (%, negative = inhibition) at 1uM” value is reported as 8.51%.
For `COc1ccccc1CNC(=O)c1cccc(C)c1[N+](=O)[O-]`, the “hERG current change (%, negative = inhibition) at 1uM” value was 2.87%.
For `CCCN1CC=C2C(C#N)=C(N)C(C#N)(C#N)C(c3cccc(OC)c3OC)C2C1` (stereo not drawn), the “hERG current change (%, negative = inhibition) at 1uM” value was 5.78%.
For `CN1CCN(C(=O)c2ccc(S(=O)(=O)c3ccc(Br)cc3)cc2)CC1`, the “hERG current change (%, negative = inhibition) at 1uM” value was 1.1%.
